Source: PubChem BioAssay AID504706 (National Center for Advancing Translational Sciences (NCATS), 2011)
About 200 (0.062%) of roughly 320,000 compounds were called active. Inconclusive results, whose numbers are uncertain, are shown with a selection of clear calls. Calls come from the whole dose curve; as a rule, active = well fitted activation curve with a large enough effect; inconclusive = small, poorly fitted or top-dose-only effect; inactive = no such curve, though single readings can be large or run the other way. Potencies of inconclusive entries are left out as doubtful fits.

Test: qHTS assay for re-activators of p53 using a Luc reporter; note: nearly all actives have a fitted effect of over 45% in size; for activity change, positive = activation: % of control where 0% means no effect
Conditions: H1299 p53-A138V BP100-luciferase reporter, luminescence, 24 h; series mostly up to 92.2 µM; activity change, positive = activation: at the top concentration
Method in brief: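 H1299 (p53-null), stable ts p53-A138V + BP100-Luc; 1000 cells/well, Opti-MEM/10% FBS; cpd 4 pt, 1:5; 24 h, 37 deg C, 5% CO2; detection reagent 10 min RT; luminescence.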
Potency is the fitted concentration of half-maximal effect; tags give direction and shape of the fitted curve.

| Compound | activity change, positive = activation | Potency |
| --- | --- | --- |
| O=C(COC(=O)c1ccccc1[N+](=O)[O-])c1ccc2c(c1)OCO2 | inactive: 11.4% |  |
| COc1ccc(/C=C/C(=O)C(C(N)=O)=C2SCCS2)cc1 |  | inconclusive [activator, partial curve, poor fit] |
| CCOCC(=O)Nc1nnc(C2CCCCC2)s1 |  | inconclusive [activator, full curve, poor fit] |
| O=c1c2ccccc2nnn1Cc1nnc(-c2ccccc2Br)o1 |  | inconclusive [activator, partial curve, poor fit] |
| CCCCN(CCCC)C(=O)CSc1nnc(-c2cc(OC)c(OC)c(OC)c2)o1 | inactive: -5.88% |  |
| Nc1nc(Nc2ccccc2)nc2ccccc12 |  | inconclusive [activator, partial curve, poor fit] |
| O=C1CCn2nc(-c3ccc(Cl)cc3)cc2N1 |  | inconclusive [activator, full curve, poor fit] |
| CN(C)c1ccc(/C(=N\O)c2ccccc2)cc1 |  | inconclusive [activator, partial curve, poor fit] |
| COc1ccccc1N(O)C1CC(=O)N(c2ccc(Br)cc2)C1=O (configuration not stated) |  | inconclusive [activator, single point] |
| O=C(Nc1ccc(N2CCN(C(=O)c3ccccc3)CC2)c(Cl)c1)c1ccco1 | inactive: -0.0928% |  |
| N#CC(c1ccccc1)N(CCCCl)C(=O)c1ccccc1 (configuration not stated) |  | inconclusive [activator, single point] |
| Nc1nc2ccccc2n1/N=C/c1ccc(-c2ccccc2)o1 |  | inconclusive [activator, partial curve, poor fit] |
| Cc1cccc(C(=O)n2c(=S)nc3ccccn32)c1 |  | inconclusive [activator, partial curve, poor fit] |
| CCOC(=O)C1CCN(C(=O)c2cc(COc3ccc(F)cc3F)on2)CC1 |  | inconclusive [activator, partial curve, poor fit] |
| Cc1cccc(-n2ncc3c(NCCCn4ccnc4)ncnc32)c1 |  | inconclusive [activator, full curve, poor fit] |
| Cc1noc(C(=O)NC2CCCCC2)c1Cl | inactive: -1.08% |  |
| CCN(CC)c1ccc(/C=N/NC(=O)c2ccco2)c(O)c1 |  | inconclusive [activator, full curve, poor fit] |
| O=C(NNc1nc2cc3c(cc2s1)OCO3)c1ccccc1 |  | inconclusive [activator, partial curve, poor fit] |
| COc1ccc(Nc2nc(N)nc(CSC(=S)N3CCN(c4ccccc4)CC3)n2)cc1 | inactive: 8.01% |  |
| CCN(CC)C(=O)/C=C/c1ccccc1 |  | inconclusive [activator, partial curve, poor fit] |
| CCCCN1C(=O)N(CCc2ccc(F)cc2)S(=O)(=O)c2cc(C(F)(F)F)ccc21 | inactive: 3.93% |  |
| COc1cc2c(=O)n(CCC(=O)NCC3CCCO3)c(=O)n(CC(=O)Nc3ccc(F)cc3)c2cc1OC (configuration not stated) |  | inconclusive [activator, single point] |
| COc1ccccc1C(=O)Nc1ccc(S(=O)(=O)Nc2cc(C)on2)cc1 | inactive: 0.268% |  |

| Compound | activity change, positive = activation | Potency |
| --- | --- | --- |
| CC(=NC1CCCCC1)C1=C(O)c2ccccc2C1=O |  | inconclusive [activator, full curve, poor fit] |
| Cc1nc(COC(=O)c2ccc(CO)cc2)cs1 |  | inconclusive [activator, single point] |
| CC(C)CCn1cnc2c(cnn2-c2ccc(F)cc2)c1=O |  | inconclusive [activator, partial curve, poor fit] |
| COC(=O)c1c(NC(=O)/C=C/C(=O)O)sc(C)c1-c1ccc(C)c(C)c1 | inactive: -12.9% |  |
| NC(=O)c1oc2ccccc2c1NC(=O)c1nc2ccccc2s1 |  | inconclusive [activator, single point] |
| Cc1nn(C)c(C)c1CN(Cc1nc(CCC(C)C)no1)C(C)C | inactive: -0.968% |  |
| CC1CCN(CC(=O)Nc2ccc3c(c2)OCO3)CC1 |  | inconclusive [activator, partial curve, poor fit] |
| COC(=O)c1ccc(S(=O)(=O)NCc2ccco2)o1 | inactive: -0.685% |  |
| O=C(COC(=O)c1ccc2c(c1)OCO2)Nc1ccccc1F |  | inconclusive [activator, partial curve, poor fit] |
| C(=N\Nc1nc2ccccc2[nH]1)/c1cccs1 |  | inconclusive [activator, partial curve, poor fit] |
| CCOC(=O)c1c(NC(=S)Nc2ccccc2)sc2c1CCCCC2 | inactive: -13.8% |  |
| CC(OC(=O)c1cc2sccc2n1C)C(=O)NCc1ccco1 (configuration not stated) |  | inconclusive [activator, single point] |
| O=C(NCC1CCCO1)c1cc2c(s1)CCCC2 (configuration not stated) |  | inconclusive [activator, partial curve, poor fit] |
| Cc1cc2n(n1)C(c1cn(-c3ccccc3)nc1C)Nc1ccccc1-2 (configuration not stated) | inactive: 5.17% |  |
| CCCc1nnc(NC(=O)C2CC(=O)N(C3CCCC3)C2)s1 (configuration not stated) | inactive: 4.32% |  |
| CC(C)(Cc1ccc(O)cc1)NC(=O)SCc1ccccc1 |  | inconclusive [activator, partial curve, poor fit] |
| CC1CCc2c(C(=O)Nc3nccs3)csc2C1 (configuration not stated) |  | inconclusive [activator, partial curve, poor fit] |
| O=C(CSc1nnc2ccccn12)c1ccc2c(c1)OCCO2 |  | inconclusive [activator, full curve, poor fit] |
| Cc1ccc(Cl)c(Cn2cnc3c(cnn3C(C)(C)C)c2=O)c1F |  | inconclusive [activator, full curve, poor fit] |
| CC(C)NC(=O)c1ccccc1NC(=O)C1COc2ccccc2O1 (configuration not stated) |  | inconclusive [activator, single point] |
| CCOc1ccc2c(c1)C(C)=CC(C)(C)N2S(=O)(=O)c1ccc(NC(C)=O)cc1 |  | inconclusive [activator, partial curve, poor fit] |
| COc1ccc(-c2cc(-c3ccc(OC)cc3)[nH]n2)cc1 |  | inconclusive [activator, partial curve, poor fit] |
| CCCCN(C)C(=O)CCCc1c[nH]c2ccccc12 |  | inconclusive [activator, partial curve, poor fit] |

| Compound | activity change, positive = activation | Potency |
| --- | --- | --- |
| O=C(CSc1ncnc2c1nnn2Cc1ccccc1F)N1CCN(c2ccccc2)CC1 | inactive: 10.2% |  |
| Cc1cccc(NC(=S)N(CCCN2CCCC2)Cc2cccn2Cc2ccc(Cl)cc2)c1 |  | inconclusive [activator, partial curve, poor fit] |
| COc1cccc(/C=C2\SC(=S)N(CC3CCCO3)C2=O)c1 (configuration not stated) |  | inconclusive [activator, partial curve, poor fit] |
| COc1ccc(-c2cc(=O)c3ccccc3s2)cc1 |  | inconclusive [activator, full curve, poor fit] |
| COc1ccc2oc(C(=O)Nc3nnc(C)s3)c(C)c2c1 |  | inconclusive [activator, full curve, poor fit] |
| Cc1cccc(OCC(=O)O/N=C(\N)c2ccccn2)c1C |  | inconclusive [activator, partial curve, poor fit] |
| CCOC(=O)Cc1ccc2sc(-c3ccccc3)nc2c1 |  | inconclusive [activator, full curve] |
| CN(C1CCCCC1)S(=O)(=O)c1cccc(C#N)c1 |  | inconclusive [activator, single point] |
| COc1ccc(NS(=O)(=O)c2ccc(C)c(NC(=O)NC3CCCCC3)c2)cc1 | inactive: 13.6% |  |
| O=C(Nc1ccc2c(c1)OCO2)c1cncc(Br)c1 |  | inconclusive [activator, partial curve, poor fit] |
| CC12CCC(=O)C=C1CCC1C2C(=O)CC2(C)C1CCC2(O)C(=O)CO (configuration not stated) |  | inconclusive [activator, single point] |
| COc1ccc(C(=O)NC(=S)NC2CCCCC2)cc1 |  | inconclusive [activator, partial curve, poor fit] |
| O=C(NNC(=O)c1cc2ccccc2cc1O)c1cccs1 |  | inconclusive [activator, full curve, poor fit] |
| COC(C(=O)N1CCC(n2nccc2NC(=O)C2CC2)CC1)c1ccccc1 (configuration not stated) |  | inconclusive [activator, partial curve, poor fit] |
| C/C(=N\NC(=O)COc1ccccc1-c1ccccc1)c1ccccn1 |  | inconclusive [activator, single point] |
| COc1ccccc1NS(=O)(=O)c1cc(NC(=O)c2ccco2)ccc1N1CCOCC1 |  | inconclusive [activator, single point] |
| O=C(Oc1ccc(-c2cnc3ccccc3n2)cc1)c1ccc(Cl)c([N+](=O)[O-])c1 |  | inconclusive [activator, full curve, poor fit] |
| Brc1ccc(CN2CCSCC2)cc1 | inactive: 2.2% |  |
| C[C@H](CO)N1C[C@H](C)[C@@H](CN(C)Cc2ccncc2)Oc2c(NC(=O)C3CC3)cccc2C1=O | inactive: -7.39% |  |
| CCCc1cc(C(=O)NCc2cccs2)no1 |  | inconclusive [activator, full curve, poor fit] |
| Cc1ccc(NC(=S)Nc2ccc(Br)cc2)cc1 |  | inconclusive [activator, full curve, poor fit] |
